# Measured values as given in PubChem BioAssay AID2147 (National Center for Advancing Translational Sciences (NCATS), 2009).
# Screen size: about 230,000 compounds; about 3,600 (1.6%) were called active. The inconclusive results got no clear call from the source; some entries with a clear call stand among them for comparison. Calls come from the whole dose curve; as a rule, active = well fitted inhibition curve with a large enough effect (not every such curve was filed as active); inconclusive = small, poorly fitted or top-dose-only effect, or another doubt; inactive = no such curve, though single readings can be large or run the other way. A potency beside an inconclusive call is a rough fit, not a confirmed value.
# Target: Lysine-specific demethylase 4E (Homo sapiens) (UniProt B2RXH2)
# Experiment: qHTS Assay for Inhibitors of Human Jumonji Domain Containing 2E (JMJD2E)
# Conditions: JMJD2E catalytic domain, FDH-coupled NADH fluorescence (FDH is formaldehyde dehydrogenase); series mostly up to 57.1 µM; activity change, negative = inhibition: at the top concentration
# Note: nearly all actives have a fitted effect of over 50% in size.
# Potency is the fitted concentration of half-maximal effect; tags give direction and shape of the fitted curve.
# 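Throughout, for activity change, negative = inhibition: 0% = wells with enzyme and -100% = buffer wells without enzyme.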
# Sequence of UniProt B2RXH2 (B2RXH2 whole entry, looked up, the tested form may be a part): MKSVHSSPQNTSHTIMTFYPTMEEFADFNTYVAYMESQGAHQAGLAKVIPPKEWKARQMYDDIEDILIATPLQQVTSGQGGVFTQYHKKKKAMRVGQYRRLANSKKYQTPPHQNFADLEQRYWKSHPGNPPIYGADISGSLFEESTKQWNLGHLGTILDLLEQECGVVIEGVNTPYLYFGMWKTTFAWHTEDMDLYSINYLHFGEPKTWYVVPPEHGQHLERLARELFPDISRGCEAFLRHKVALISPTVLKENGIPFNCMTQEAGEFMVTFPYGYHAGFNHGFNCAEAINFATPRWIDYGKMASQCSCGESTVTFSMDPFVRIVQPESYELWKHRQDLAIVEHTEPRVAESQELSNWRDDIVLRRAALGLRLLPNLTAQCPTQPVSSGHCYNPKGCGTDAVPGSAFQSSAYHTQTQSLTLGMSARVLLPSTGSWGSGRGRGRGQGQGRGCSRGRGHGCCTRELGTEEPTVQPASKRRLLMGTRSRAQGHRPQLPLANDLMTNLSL
Structure (SMILES),"activity change, negative = inhibition",Potency
COc1cc2c(cc1OC)CN(S(=O)(=O)c1cccs1)CC2,inactive: -4.84%,
COc1ccc(OC)c(Nc2nc(-c3sc(NC(=O)C(C)(C)C)nc3C)cs2)c1,,"inconclusive: 39.8 µM [inhibitor, single point]"
O=C(Nc1ccccc1Cl)c1cccc(COc2cc(Cl)ccc2Cl)c1,inactive: -1.41%,
COC(=O)c1ccc(C(=O)OC)c(NC(=O)C(C)C)c1,,"inconclusive: 22.4 µM [inhibitor, partial curve]"
CCOc1cc(/C=N/NC(=O)c2c(-c3ccccc3)noc2C)ccc1O,,"inconclusive: 31.6 µM [inhibitor, single point]"
N#Cc1c2ccc(O)cc2n2ccccc12,,"inconclusive: 31.6 µM [inhibitor, partial curve]"
COc1ccc2nc(NC3=NCN(CC4CCCO4)CN3)nc(C)c2c1 (centres undefined),,"inconclusive: 35.5 µM [inhibitor, single point]"
Oc1ccccc1Nc1nc(NCc2ccccc2)c2ccccc2n1,,"inconclusive: 15.8 µM [inhibitor, partial curve, poor fit]"
CC(C)(C)c1ccc(OCCNC(=S)Nc2ccccc2)cc1,inactive: 5.8%,
Cc1cc([N+](=O)[O-])cc(/C=N\NC(=O)C2COc3ccccc3O2)c1O (centres undefined),,"inconclusive: 31.6 µM [inhibitor, single point]"
CCN(CC)S(=O)(=O)c1ccc(NC(=O)c2cc(-c3cccs3)nc3ccccc23)cc1,,"inconclusive: 31.6 µM [inhibitor, partial curve]"
CC1=CC=CC2=N/C(=N\S(=O)(=O)c3ccc(F)cc3F)c3ccccc3CN12,,"inconclusive: 31.6 µM [inhibitor, single point]"
Cc1cc(N2CCCCC2)n2ncc(-c3ccc(Cl)cc3)c2n1,,"inconclusive: 28.2 µM [inhibitor, partial curve]"
COC(=O)c1ccccc1NC(=O)NC1CCCCC1,,"inconclusive: 28.2 µM [inhibitor, partial curve]"
Fc1ccc(Cn2ccc(-c3cnc(-c4ccccc4)s3)n2)cc1,,"inconclusive: 31.6 µM [inhibitor, partial curve]"
CCC(=O)NC1(C(F)(F)F)C(=O)Nc2c1c(=O)[nH]c(=O)n2CC(C)C (centres undefined),inactive: -7.22%,
COCc1cc(=O)[nH]c(Nc2nc3ccccc3o2)n1,,"inconclusive: 35.5 µM [inhibitor, partial curve]"
Cc1ccc(S(=O)(=O)/N=C2/NC(=O)/C(=C/c3ccncc3)S2)cc1,,"inconclusive: 39.8 µM [inhibitor, single point]"
O=C(CN(Cc1ccco1)C(=O)c1cc(=O)[nH]c2ccccc12)Nc1ccccc1Br,,"inconclusive: 39.8 µM [inhibitor, single point]"
COC(=O)[C@@]1(Cc2ccc(F)cc2)[C@H]2c3cc(C(=O)N(C)C)n(CCc4ccc(O)c(O)c4)c3C[C@H]2CN1C(=O)c1ccccc1,,"inconclusive: 17.8 µM [inhibitor, partial curve, poor fit]"
CCOc1ccc(C(=O)N/N=C/c2cc([N+](=O)[O-])cs2)cc1,inactive: 1.16%,
CC(=O)CCc1ccc(OCC(O)CNC2CCCc3ccccc32)cc1 (centres undefined),,"inconclusive: 35.5 µM [inhibitor, single point]"
O=C(Oc1c(CN2CCOCC2)cc(Cl)c2cccnc12)c1ccccc1Cl,,"inconclusive: 35.5 µM [inhibitor, single point]"

Structure (SMILES),"activity change, negative = inhibition",Potency
CC(=Nc1ccc(O)cc1)c1sc2ccccc2c1O,,"inconclusive: 22.4 µM [inhibitor, single point]"
O=c1oc(Cl)c(Cl)c2ccccc12,inactive: 3.76%,
CCCCN(C)c1nc(-c2ccco2)c2c(c1C#N)CC(C)(C)OC2,,"inconclusive: 28.2 µM [inhibitor, partial curve]"
CN(C)CCn1c(NC(=O)c2ccc(Cl)cc2)nc2ccccc21,,"inconclusive: 35.5 µM [inhibitor, single point]"
COc1cc2cc3c(N)c(C(=O)NCc4ccco4)sc3nc2cc1OC,,"inconclusive: 4.47 µM [inhibitor, full curve]"
CSCCC(NS(=O)(=O)c1ccc2[nH]c(=O)c(=O)[nH]c2c1)C(=O)O (centres undefined),,"inconclusive: 39.8 µM [inhibitor, partial curve]"
CCCCN(CCCC)CCn1cnc2c([nH]c3ccc(OC)cc32)c1=O,,"inconclusive: 10 µM [inhibitor, partial curve]"
O=C(CSc1nc2ccccc2o1)c1cc2ccccc2oc1=O,,"inconclusive: 35.5 µM [inhibitor, partial curve]"
O=C1CCN(C(=O)Nc2cccc(Cl)c2)N1,inactive: 9.03%,
Nc1ccc2nc(-c3ccc(Cl)cc3)[nH]c2c1,,"inconclusive: 25.1 µM [inhibitor, partial curve]"
FC(F)(F)c1cnc(Oc2ccccc2-c2nnc(-c3ccc(Cl)cc3)o2)c(Cl)c1,,"inconclusive: 35.5 µM [inhibitor, single point]"
CCOc1ccc2[nH]c(=O)c(C(c3nnnn3CCOC)N3CCOCC3)cc2c1 (centres undefined),,"inconclusive: 28.2 µM [inhibitor, partial curve]"
COc1ccccc1NCC(O)Cn1c2ccccc2c2ccccc21 (centres undefined),inactive: -0.093%,
O=C(/C=C/c1ccc(Br)cc1)NC(=S)NNC(=O)c1ccco1,,"inconclusive: 39.8 µM [inhibitor, single point]"
CN1CCC(N(C)CC(=O)Nc2cccc(Oc3ccccc3)c2)CC1,,"inconclusive: 39.8 µM [inhibitor, single point]"
CC1=C(C#N)c2nc(N)c(C#N)c(C)c2/C1=C\c1ccc(-c2ccccc2C(=O)O)o1,,"inconclusive: 31.6 µM [inhibitor, partial curve]"
CN(C)S(=O)(=O)Nc1ccccc1C(N)=O,,"inconclusive: 28.2 µM [inhibitor, partial curve]"
COc1ccccc1Nc1nc(-c2sc(NC(=O)c3ccc([N+](=O)[O-])cc3)nc2C)cs1,inactive: 7.19%,
CCCCC(=O)Nc1ccc2oc(-c3ccncc3)nc2c1,,"inconclusive: 25.1 µM [inhibitor, partial curve]"
CCNS(=O)(=O)c1ccc(NC(=O)c2ccc(Cn3cc([N+](=O)[O-])cn3)o2)cc1,inactive: 5.38%,
O=S1(=O)C=C(Sc2nc3cc(Cl)ccc3o2)c2ccccc21,,"inconclusive: 35.5 µM [inhibitor, partial curve]"
CC(=O)Nc1c(OC(C)=O)ccc2c(C)cc(=O)oc12,,"inconclusive: 28.2 µM [inhibitor, partial curve]"
CCCOC(=O)Nc1nc(-c2ccc(C)cc2)c(C)s1,inactive: -6.54%,

Structure (SMILES),"activity change, negative = inhibition",Potency
Cc1ccc(C2/C(=C(/O)c3cnn(-c4ccccc4)c3C)C(=O)C(=O)N2CCCN2CCOCC2)o1 (centres undefined),,"inconclusive: 28.2 µM [inhibitor, single point]"
COC(=O)CCC(=O)c1oc2ccc(OC)cc2c1N,,"inconclusive: 39.8 µM [inhibitor, single point]"
CCOC(=O)C1C(=O)C=C(c2ccc(C)cc2)CC1c1cccc([N+](=O)[O-])c1 (centres undefined),inactive: -1.63%,
c1ccc(CSc2nc3ccccc3[nH]2)cc1,inactive: 10.3%,
COc1ccc2c(N)c(C(=O)NN)[nH]c2c1,,"inconclusive: 35.5 µM [inhibitor, single point]"
O=C(Nc1nc2ccccc2[nH]1)c1cccs1,,"inconclusive: 39.8 µM [inhibitor, single point]"
CN1CCN(C(=S)C(=O)Nc2ccc(Br)cc2)CC1,,"inconclusive: 14.1 µM [inhibitor, partial curve]"
CCOC(=O)c1cc(-c2ccco2)nc2c1c(C)nn2CCC#N,,"inconclusive: 31.6 µM [inhibitor, partial curve]"
COC(=O)C1CCN(c2cnccn2)CC1,,"inconclusive: 25.1 µM [inhibitor, single point]"
Cc1cc(C)nc(NC(=NCCc2c[nH]c3ccccc23)NC(=O)C(C)(C)C)n1,inactive: -7.49%,
CC1=Nc2ccccc2NC(=O)C1Sc1nnc(C)s1 (centres undefined),inactive: -2.08%,
CC(C)CNC(=O)CC(c1ccccc1)c1c(O)ccc2ccccc12 (centres undefined),,"inconclusive: 39.8 µM [inhibitor, single point]"
CC1=C(C(=O)Nc2ccccn2)C(c2ccc3c(c2)OCO3)C2=C(CC(C)(C)CC2=O)N1 (centres undefined),,"inconclusive: 31.6 µM [inhibitor, partial curve]"
Cc1c(F)cccc1NS(=O)(=O)c1ccc2c(c1)NC(=O)CO2,inactive: -1.26%,
COc1cc(NC(=O)c2cc(-c3ccco3)on2)c(OC)cc1Cl,,"inconclusive: 3.16 µM [inhibitor, single point]"
O=C(O)c1cc(-c2c[nH]c3ccccc23)nc2cc3ccccc3cc12,,"inconclusive: 25.1 µM [inhibitor, partial curve]"
CCCCCOc1ccc(CSCCNC(=S)Nc2ccccc2)cc1,inactive: -10.3%,
COc1ccc(-c2nnc(SCC(=O)c3cccs3)n2-c2ccc(Cl)cc2)cc1,,"inconclusive: 39.8 µM [inhibitor, single point]"
COc1ccc2cc(C(=O)C3CCCN(C(=O)c4cc5nc(C)cc(C)n5n4)C3)ccc2c1 (centres undefined),,"inconclusive: 28.2 µM [inhibitor, partial curve]"
O=P(c1ccccc1)(c1ccccc1)c1nc(-c2ccccc2)oc1NCc1ccccc1,,"inconclusive: 35.5 µM [inhibitor, single point]"
COc1cc(/C=C2\COC/C(=C\c3cc(OC)c(OC)c(OC)c3)C2=O)cc(OC)c1OC,inactive: -5.9%,
O=C(O)CCC(CNS(=O)(=O)c1ccccc1)C(F)(F)F (centres undefined),inactive: 1.36%,
CC(=O)Nc1ccc2nc(-c3ccccc3)cn2c1,,"inconclusive: 22.4 µM [inhibitor, partial curve]"
